Measurements: PubChem BioAssay AID1508624 (National Center for Advancing Translational Sciences (NCATS), 2021)
Among all 48,000 compounds or so, about 120 (0.25%) were called active. Inconclusive results (about 4%) are left out. Calls come from the whole dose curve; as a rule, active = well fitted activation curve with a large enough effect; inconclusive = small, poorly fitted or top-dose-only effect, or another doubt; inactive = no such curve, though single readings can be large or run the other way. The list shows a part of the results.

assay: Primary qHTS for Identification of Small Molecule Activators of Huntingtin-Antisense Promoter Activity; conditions: HEK293 HTT-AS promoter firefly luciferase reporter (activity 0% = vehicle and -100% = no light), 24 h; series mostly up to 57.5 µM; activity change, positive = activation: at the top concentration; note: nearly all actives have a fitted effect of over 55% in size
Summary of the method: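 Firefly luciferase signal from promoter-reporter HEK293 cells was scaled between vehicle (0%) and zero RLU (-100%). Compounds were tested at final concentrations of up to 57.5 uM over 24 h at 37 degrees C. PTC124 at 50 uM final served as control inhibitor.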

Activity change, positive = activation, inactive:
COc1ccc(CNC(=O)Cc2c(C)c3cc4c(C)coc4c(C)c3oc2=O)cc1 -2.2%
O=C(Nc1cccc(Cl)c1)c1cnc2sc(N3CCCC3)nn2c1=O -42.9%
CN1C(=O)Cc2cc(S(=O)(=O)N3CCN(c4ccccc4F)CC3)ccc21 -22.8%
Cc1ccc(C)c(CN2CCCN(Cc3ccc(F)cc3)S2(=O)=O)c1 -31.4%
Cc1nc(-n2nc(C)c(Cc3ccccc3Cl)c2C)sc1C(=O)Nc1ccccc1F -1.01%
CCOC(=O)Cn1c(=O)n(CC2CCCO2)c2nc(-c3ccc(C)cc3)nc(C(N)=O)c21 (stereo not given) -8.72%
CC(=O)c1ccc(S(=O)(=O)N2CCn3cccc3C2c2ccc(C)cc2)cc1 (stereo not given) -27.9%
Cc1ccc2nc3c(cc(C(=O)NCC4CCCO4)c(=N)n3C(C)C)c(=O)n2c1 (stereo not given) 10.3%
COc1ccccc1NC(=O)C(=O)NCC(c1ccc2c(c1)OCO2)N1CCOCC1 (stereo not given) -6.42%
COc1ccc(Cl)cc1NC(=O)Cc1ccc(NC(=O)N2CCCCc3ccccc32)cc1 -11.3%
CN1C(=O)CC[C@H]1c1cccnc1 -2.11%
CCOC(=O)c1ccccc1NC(=O)CSc1nc2cn(CC)nc2c(=O)n1Cc1ccc(Cl)cc1 -19.8%
Cc1ccc2c(c1)c1c(c(=O)n(-c3cccc(Cl)c3)c(=O)n1CC(=O)Nc1c(C)cccc1C)n2C -2.9%
Cc1ccc(CN2CCSc3ccc(C(=O)N4CCN(c5ccccc5)CC4)cc32)cc1 -6.93%
COc1ccc(N2CCN(C(=O)C3CCN(S(=O)(=O)c4cccs4)CC3)CC2)cc1 -23.1%
O=C(CC1N=C2c3ccccc3N=C(SCc3ccc(Cl)cc3)N2C1=O)NCc1cccs1 (stereo not given) -8.68%
CC(=O)O[C@]1(C(C)=O)CC[C@H]2[C@@H]3C=C(C)C4=CC(=O)CC[C@]4(C)[C@@H]3CC[C@@]21C -7.02%
O=c1c2cc3c(cc2n(Cc2ccc(Cl)cc2)c(=O)n1Cc1nc(-c2ccccc2)no1)OCO3 -16.9%
Cc1ccc(O)c(C(CCN(C(C)C)C(C)C)c2ccccc2)c1 (stereo not given) -3.41%
Cc1ccc(-n2c(Cc3ccccc3)nnc2SCc2nc(-c3cccs3)no2)cc1 -31.1%
CCc1ccccc1NC(=O)Nc1c[nH]c(=O)[nH]c1=O -2.56%
COc1cc(C(=O)Oc2c(Sc3ccccc3)c(C)nn2-c2ccccc2)cc(OC)c1OC -35.1%
Cc1ccc(/C=C/c2onc(C)c2S(=O)(=O)N2CCC(C(=O)Nc3ccc(C)c(N(C)C)c3)CC2)cc1 -7.45%
Cc1ccc(CNC(=O)CCCCCn2c(=O)[nH]c3ccccc3c2=O)cc1 -5.12%
Cc1nn(-c2ccccc2)c(OC(=O)C(C)C)c1Sc1ccc(Cl)cc1 -15.7%
CC1CCCN(CCCNC(=O)c2ccc3c(c2)N(Cc2ccccc2F)C(=O)c2ccccc2S3(=O)=O)C1 (stereo not given) -14%
Cc1ccccc1-c1nc(CN2CCC(C(=O)NCc3ccccc3Cl)CC2)c(C)o1 -0.519%
Cc1cnc(-c2cc(N3CCN(C(=O)CCS(C)(=O)=O)CC3)ncc2Cl)c(C)c1 -20.3%
CC(C)(C)c1ccc(NC(=O)C2CCCN(c3cnccn3)C2)cc1 (stereo not given) 19%
CCc1nnc(NC(=O)CSc2nccn2-c2ccc(OC)cc2)s1 -21.8%
CCn1c(C)c(C2N3CC4(C)CN2CC(C)(C3)C4=O)c2ccccc21 (stereo not given) 14.3%
C/C(=N\O)[C@@H](C)NCC(C)(C)CN[C@H](C)/C(C)=N/O -14%
CSc1ccc(CCNC(=O)c2cnc3c(C)cccn3c2=O)cc1 12.1%
CC(=O)c1cccc(-n2c(=O)c3c4c(sc3n(CC(=O)c3ccccc3)c2=O)CN(C(C)=O)CC4)c1 -12.7%
Cc1nc(C)c(-c2ccc(SCC(=O)Nc3ccc(Br)cc3)nn2)s1 -45.3%
Cc1ccc(C)c(CN2C(=O)c3ccccc3S(=O)(=O)c3ccc(C(=O)N(C)C4CCCCC4)cc32)c1 -33.3%
CC(=O)c1cc2c(cc1N/C(=N/S(=O)(=O)c1ccc(Cl)cc1)c1ccc(F)cc1)OCO2 -15.6%
CCc1ccc(NC(=O)c2ccc3c(O)c(S(=O)(=O)c4ccc(Cl)cc4)c(=O)[nH]c3c2)cc1 2.95%
Cc1cccc(OC(C)C(=O)Nc2ncn[nH]2)c1 (stereo not given) 14.6%
CCCCN(CC)CCCNC(=O)c1sc2nc(C)cc(C)c2c1-n1cccc1 -4.45%
COc1ccc(CN(C(=O)COc2ccccc2OC)C2CCS(=O)(=O)C2)cc1 (stereo not given) 18.3%
Cc1ccc(S(=O)(=O)N(CC(O)Cn2c3ccccc3c3ccccc32)c2cccc(C(N)=O)c2)cc1 (stereo not given) -50.9%
CCN(CC)c1cc(C)c2cc(NC(=O)c3cccc(OC)c3)ccc2n1 -13.5%
CCOC(=O)C1CCCN(S(=O)(=O)c2ccc(F)c(C(=O)Nc3ccc(F)c(F)c3)c2)C1 (stereo not given) -30.8%
Cc1cccc2nc(-c3ccco3)c(Nc3ccc4c(c3)OCO4)n12 -23.8%
Cc1cc(C)c(NC(=O)Cn2c(=O)n(CC(=O)NCc3ccccc3Cl)c(=O)c3sccc32)c(C)c1 10.8%
CC(=O)c1cc2c(cc1N/C(=N/S(=O)(=O)c1ccc(C)cc1)c1ccccc1)OCO2 -24.2%
COC(=O)c1ccc(NC(=O)CCS(=O)(=O)c2ccc(Br)cc2)cc1 -23.4%
CCOC(=O)c1c(NC(=O)/C=C/c2ccc(OCC)cc2)sc(C)c1C -6.76%
COC(=O)C(NC(=O)CC(C)C)(Nc1nc2c(s1)CCCC2)C(F)(F)F (stereo not given) -8.22%
CCCCOc1ccc(C(=O)NCCS(=O)(=O)N2CCN(c3ccc(F)cc3)CC2)cc1 -13.8%
CCOc1ccc(CNCc2c(C(=O)O)n(Cc3ccccc3F)c3cc(OC)ccc23)cc1 -15%
COc1ccc(-c2cc(C(=O)O)n(Cc3ccccc3)n2)cc1 -6.23%
COc1ccc(C(=O)NC2(C(F)(F)F)C(=O)NC(C)=C2C#N)cc1OC (stereo not given) -7.33%
CCC(=O)N1CCc2cc(Br)cc(S(=O)(=O)N3CCC(C(=O)Nc4ccc(OC)cc4)CC3)c21 -27.4%
COc1ccc(NC(=O)CSc2nc(-c3cccs3)cc(C(F)(F)F)n2)cc1OC -32.4%
O=C(CSc1nc2ccccc2nc1Cc1ccccc1)NCc1ccccc1Cl -7.26%
CCOC(=O)c1ccccc1O -5.98%
COc1ccc(CNC(=O)CSc2nc(-c3ccc(OC)cc3)cc(C(F)(F)F)n2)cc1 -14.5%
Cc1ccc(CCNC(=O)CCCn2nc(C)c3c(C)n(-c4ccccc4)nc3c2=O)cc1 0.653%
COc1cccc(-c2cc(C(=O)Nc3cc(Cl)ccc3O)on2)c1 23.1%
Cc1ccc(NC(=O)CN(C)S(=O)(=O)c2ccc3c(c2)n(C)c(=O)c(=O)n3C)cc1C -10.3%
Cc1ccc(-c2nc3c4ccccc4n(CC(=O)N4CCN(c5ccccc5F)CC4)c(=O)n3n2)cc1 -2.57%
Cc1ccccc1CNC(=O)c1cnc2sc(N3CCOCC3)nn2c1=O -5.31%
Cc1ccc(-n2nnnc2CNC(=O)C(C)(C)C)cc1C -0.797%
Cc1nc(SC(C)C(=O)Nc2ccccc2C)cc(-c2ccccc2)n1 (stereo not given) -19.5%
CCOC(=O)N[C@@H]1CC[C@@H]2[C@@H](C1)C[C@H]1C(=O)O[C@H](C)[C@H]1[C@@H]2C=Cc1ccc(-c2cccc(F)c2)cn1 -24.6%
CCOc1ccc(CCNC(=O)Cn2nc(C)n3c(cc4occc43)c2=O)cc1OCC -13%
CCn1c2ccccc2c2nnc(SCC(=O)O)nc21 -5.97%
COC(=O)C1=C(CS(=O)(=O)c2cc(Cl)ccc2OC)NC(=O)NC1c1ccccc1 (stereo not given) -29.9%
CCCCOc1ccc(C(=O)N2CCN(CCc3ccncc3)CC2)cc1 5.56%
COCCCNC(=O)c1oc2c(c1C)-c1nn(Cc3cccc(Cl)c3)cc1CC2 -41.2%
COc1ccccc1N1CCN(C(=O)c2nn(-c3ccc(C)cc3)c(=O)n(C)c2=O)CC1 -15.4%
CCOC(=O)c1ccc(Nc2c(-c3ccc(O)c(OC)c3)nc3nc[nH]n23)cc1 -15.8%
Cc1cc2nnc(SCC(=O)Nc3ccc(F)c(Cl)c3)n2c2ccccc12 -1.08%
COc1cc(NS(=O)(=O)c2ccc3c(c2)CCN3S(C)(=O)=O)cc(OC)c1 -12.1%
CCc1ccccc1NC(=O)Cn1c(=O)n(Cc2ccc3c(c2)OCO3)c(=O)c2ccc(C(=O)NC3CCCCC3)cc21 -11.4%
Cc1ccccc1-c1nc(CS(=O)(=O)CC(=O)NCC(C)c2ccccc2)c(C)o1 (stereo not given) -24.6%
O=C(COc1ccccc1Cl)NCC1(N2CCOCC2)CCCCC1 -44.9%
COc1cc(OC)c(NC(=O)C2CCCN(c3ncnc4c3nc3n4CCCCC3)C2)cc1Cl (stereo not given) -10.6%
CCc1ccc(OCC(=O)Nc2cc3oc4ccccc4c3cc2OC)cc1 -3.43%
Cc1c(NC(=O)c2cccnc2)c(=O)n(-c2ccccc2)n1C -1.54%
O=C(NCCc1ccccc1)c1cnc2sc(N3CCCC3)nn2c1=O -18%
CCCc1nn2c(=O)cc(COC(=O)c3cccc(NC(=O)COc4ccccc4C)c3)nc2s1 -8.39%
CC1CCC(NC(=O)c2ccc3c(c2)N(Cc2ccccc2)C(=O)c2ccccc2S3=O)CC1 (stereo not given) -0.0463%
COc1cc(-c2nnn(CC(=O)Nc3ccc(OC(F)(F)F)cc3)n2)cc(OC)c1OC -28.9%
CCOC(=O)c1c(C)[nH]c(CCC(=O)Nc2cc(C)ccc2OC)c1C -26.7%
CCOC(=O)c1cccc(NC(=O)CN2C(=O)c3ccccc3Sc3ncccc32)c1 -8.62%
Cc1ccc(C(=O)NCc2ccc(N(C)C)cc2)cc1NC(=O)c1nsc2ccccc12 -7.83%
O=C(CSCc1ccccc1Cl)N1CCN(c2ccc(F)cc2)CC1 3.39%
CN1C(C(=O)Nc2ccc(F)cc2F)=CC(c2ccco2)=NS1(=O)=O -7.28%
Cc1nnc(NCc2ccccc2)c2c1nnn2Cc1ccccc1Cl 4.79%
Cc1cccc(C)c1NC(=O)c1oc2ccc3c(c2c1C)C(=O)CC(C)(C)O3 -9.25%
Cc1cc2oc(C(=O)Nc3c(C(=O)Nc4ccccc4)oc4ccccc34)cc(=O)c2cc1C -2.07%
Cc1cccn2c(=O)c(C(=O)NCCCN3CCCCC3C)c(O)nc12 (stereo not given) -14.4%
